# Assay results taken from the supplement of paper PMC11417369.
# ± gives the standard deviation of the averaged measurements. The list shows a part of the results.
# System: PfAP2-LT AP2 domain (GST-tagged)
# Assay: gcPBM binding intensity (ln(normalized median fluorescence intensity)); higher = stronger DNA binding
# Procedure, shortened: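 GST-tagged P. falciparum DNA-binding domains produced in E. coli were incubated for 1 h on an Agilent 4 × 180k array of primer-extended double-stranded 36-bp intergenic genomic probes with negative controls. Binding intensity is the highest Masliner-normalised natural-log median intensity across replicate spots of either probe orientation, with bound protein detected by Alexa488 anti-GST antibody at 488 nm.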
row,Sequence,gcPBM binding intensity (ln)
1,CTTATATTAAGTATTACACACATATATATAAATGCA [CACACA_site4581],8.8 ± 0.42
2,TTTTACGTAATATTTATACACACGAACCTTATTAAT [CACACA_site2300],8.9 ± 0.42
3,TAGAAATAAGAAAAATGTACATATAATATTGAAAGT [XGTACX_site3043],9.06 ± 0.54
4,TATATATATATAAGAAGTACAGAAAATTAGAAAAAA [XGTACX_site8773],8.72 ± 0.48
5,AGAAAAATCTAAATTCGTACATAACGTTTAAACATA [XGTACX_site2511],8.51 ± 0.42
6,AGGATATAAAGTTGTGCATGTCAAGTGCACCGTATT [TGCATGCA_site451],8.99 ± 0.34
7,GATGTGTATATTAAATGTACGAACAGTTGAGGCGAA [XGTACX_site7853],9.13 ± 0.52
8,CAGCATGGTATACCTATAAAATATATATACTAACAT [TGCATGCA_negctrl_site51],8.83 ± 0.51
9,ATGTTACACAGACACACACACATAAAAAAACAAAAA [CACACA_site7516],9.6 ± 0.42
10,TTTTTAAAAAATAAGAAAAAATAAATATATTACAAA [XGTACX_negctrl_site191],8.2 ± 0.42
11,GGCATATATACATATGGTACACATTTATTAATACCG [XGTACX_site2710],9.04 ± 0.31
12,CACATACATATATATACACACAAATATATATACGCA [CACACA_site791],9.2 ± 0.35
13,AGAACATGCAAACATGCACACAGAAAAAAAAAATAT [CACACA_site8442],9.31 ± 0.42
14,GTTTTATTCCATTATTGTACTTAATATAAAGAAACT [XGTACX_site3054],8.61 ± 0.41
15,ATAAATTGAAGTAAATTTGACCTTTTTTTTTTTTTT [GTGCAC_negctrl_site354],8.38 ± 0.43
16,ATAATAATATGTGGGTGTACATATACACATATATAT [XGTACX_site4356],9.21 ± 0.4
17,AAAAAATATAATAATTGTACACATGCACACACAAAT [XGTACX_site1563],9.53 ± 0.42
18,TTTCATATCTTGTCAAGTACATATTTTTATTTTCTT [XGTACX_site2160],8.82 ± 0.44
19,ACTTAATATCGGTACACACACAAGATAAGAATTATG [CACACA_site894],9.37 ± 0.39
20,AGAGGAGTAAAACAAAACAAAGAGAAATAAACACAC [XGTACX_negctrl_site386],9.31 ± 0.33
21,AATTAATAAATATTATATGTTAATATTTTTTTTGTT [CACACA_negctrl_site1692],8.42 ± 0.54
22,ATACTAAAAATGAATGTACACATATATATATATATA [TGCATGCA_negctrl_site209],9.86 ± 0.38

row,Sequence,gcPBM binding intensity (ln)
1,ATATATCTTTATATAGTGCATTAAATATGTTGTAAT [GTGCAC_site9953],8.62 ± 0.44
2,TATAATAAAATATTTTGTACGTATATTTTAATATTT [XGTACX_site2582],8.59 ± 0.38
3,AAAAAAAATAAAAATAGTACCCAAAAAATTATGAAT [XGTACX_site6641],8.76 ± 0.46
4,TTTTTATAAAAATGAACACACACATATATATATATA [CACACA_site9160],9.325 ± 0.05
5,AATAACACTATTTAACGTACAAAAAAAAAAAAGAAA [XGTACX_site3721],8.7 ± 0.58
6,ACAAAAAAAAAAAAAAAAAGAAGAATATATCTATAT [CACACA_negctrl_site759],8.38 ± 0.57
7,TATCATACAATATTCACACAAATAAATTGACATATT [CACACA_site5891],8.75 ± 0.37
8,CACAGACACGGACACACACACACAAAAAAAAAAAGA [CACACA_site4436],10.1 ± 0.55
9,TATTAAAAAAATATTTGTACTTAAAATTTATTATAT [XGTACX_site1467],8.29 ± 0.59
10,TATTTTCTTTAATTAATTATTGGTCTGAATGGGGTT [CACACA_negctrl_site418],8.78 ± 0.36
11,AAAAAGGAAATAATAACACACATTAGTAATTATAAA [CACACA_site7573],8.89 ± 0.45
12,AATACTTTTTTCTGTACACACTTGATTTACTATAAT [CACACA_site5544],9.01 ± 0.45
13,TTCATATTCGATAAAGTGCATTAATTTTATTTATCA,8.4 ± 0.42
14,TCCAATTGTTCTAGTGTGCACATAAATAAATCTCAT,9.07 ± 0.4
15,TATTACATACATATCTGTACATATATTAATGCACAA [XGTACX_site3315],8.72 ± 0.44
16,TATTAATGCAAATGTTATATGTGCATACATAAATGT [CACACA_negctrl_site790],8.73 ± 0.42
17,AAAAATATTAAAAAAGGTACACAGCATATCTCTTTT [XGTACX_site65],8.79 ± 0.43
18,AAGAGTTAAAAAAATACACACATATAGATTTTTTTA [CACACA_site7018],8.83 ± 0.41
19,ATAAATAAAAAAGAAAGAAAGAAAGAAACAAACAAA [CACACA_negctrl_site1198],8.73 ± 0.52
20,AGCACATTATTCAAAAGTACAAATAGGTATTGTATA [XGTACX_site6107],8.81 ± 0.45
21,TTTTTTTCTTTTTACATACACACAAAAAAATAAAAT [CACACA_site580],8.52 ± 0.38
22,AATATAAAAAAAAAAAAAAAAAAAAAAAAAAAGACA [CACACA_negctrl_site983],8.66 ± 0.5
